Measured values from the BET-seq Pho4 binding data (Le et al. 2018).
The other results are listed elsewhere or left out. The energies were worked out here from pooled read counts, against the library average; single values are noisy.

target: T1, Pho4 (S. cerevisiae) (UniProt P07270); assay: relative binding free energy (BET-seq); higher = weaker binding; settings: reference: library average
T1 sequence: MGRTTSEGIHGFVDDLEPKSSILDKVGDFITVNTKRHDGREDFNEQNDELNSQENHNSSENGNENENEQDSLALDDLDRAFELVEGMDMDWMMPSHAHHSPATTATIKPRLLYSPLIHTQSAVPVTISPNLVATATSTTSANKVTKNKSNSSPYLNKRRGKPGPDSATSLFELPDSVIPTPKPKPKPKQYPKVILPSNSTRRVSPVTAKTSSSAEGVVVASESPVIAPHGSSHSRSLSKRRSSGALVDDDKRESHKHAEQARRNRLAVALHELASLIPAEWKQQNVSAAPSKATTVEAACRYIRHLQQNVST

Sequence | relative binding free energy
AATAACACGTGTAGTT | 0.02 kcal/mol
TCTGTCACGTGAGGGA | 0.24 kcal/mol
TTGCGCACGTGCGGGA | -0.26 kcal/mol
TTATTCACGTGGGGTG | 0.13 kcal/mol
GGTTGCACGTGAACTG | 0.31 kcal/mol
CATGGCACGTGGTGTA | -0.18 kcal/mol
AGAGTCACGTGTAGCG | 0.25 kcal/mol
TGTGTCACGTGAAAGT | 0.16 kcal/mol
TGTTACACGTGGAGCG | 0.07 kcal/mol
ATGATCACGTGGATTT | 0.15 kcal/mol
TTTAGCACGTGGTTAT | -0.14 kcal/mol
GTCGTCACGTGTGGAA | 0.07 kcal/mol
GAGGCCACGTGTGGGG | 0.09 kcal/mol
GTGGACACGTGTGGTT | 0.2 kcal/mol
TGTGGCACGTGTGTAA | -0.07 kcal/mol
TTAAGCACGTGGGTCG | -0.26 kcal/mol
GAGCTCACGTGAAGTT | 0.62 kcal/mol
GTATTCACGTGTCGGT | 0.24 kcal/mol
TTGGTCACGTGTGAAC | 0.21 kcal/mol
TTTGTCACGTGGTTAC | 0.04 kcal/mol
AGTGGCACGTGTATTA | -0.12 kcal/mol
TCGGGCACGTGAATGG | 0.14 kcal/mol
CGGTACACGTGAGGTT | 0.25 kcal/mol

Sequence | relative binding free energy
GTATTCACGTGGGAAA | 0.25 kcal/mol
TTAATCACGTGTCTTA | 0.08 kcal/mol
AGTAACACGTGGAGTA | 0.12 kcal/mol
GTTTGCACGTGTTGAA | 0.18 kcal/mol
TCTTACACGTGGTGCT | 0.1 kcal/mol
ATATGCACGTGTGGCG | 0.01 kcal/mol
TAGAACACGTGTTTAG | 0.03 kcal/mol
TTGTTCACGTGTTGTA | 0.22 kcal/mol
TAAGACACGTGGGAGT | -0.02 kcal/mol
CTCGTCACGTGGGGAT | 0.02 kcal/mol
AGAAACACGTGTTTGT | -0.05 kcal/mol
TTCGCCACGTGTTGTG | -0.02 kcal/mol
AGTCGCACGTGAGTTT | 0.25 kcal/mol
TGGGACACGTGTTCGA | 0 kcal/mol
CTTTGCACGTGGCGGG | -0.09 kcal/mol
ATGTACACGTGGGTCG | -0.13 kcal/mol
TACTTCACGTGGGTCG | 0.27 kcal/mol
AGAGGCACGTGGTGCC | -0.02 kcal/mol
TAATTCACGTGTAGCA | 0.31 kcal/mol
TTAGTCACGTGGCCGG | -0.08 kcal/mol
GCGGGCACGTGAGAGC | 0.28 kcal/mol
TGTGGCACGTGGCATG | -0.14 kcal/mol
TAGGACACGTGTTGTG | 0.02 kcal/mol

Sequence | relative binding free energy
GTCCGCACGTGTGGGT | 0.02 kcal/mol
AGTGACACGTGTAGGA | 0.03 kcal/mol
GAGGTCACGTGTGCTA | 0.18 kcal/mol
ATATCCACGTGGGTTA | -0.08 kcal/mol
TTTCTCACGTGAGTTC | 0.44 kcal/mol
GGATGCACGTGGAAGG | -0.07 kcal/mol
TGTGACACGTGGTGTG | 0 kcal/mol
TGAGCCACGTGTTAGG | -0.02 kcal/mol
TTCCGCACGTGAGGGT | 0 kcal/mol
TGTGGCACGTGCGAGT | -0.12 kcal/mol
TCGAGCACGTGAGAGG | 0.24 kcal/mol
GCATTCACGTGAGGAT | 0.48 kcal/mol
TAGTACACGTGCAGGA | 0.18 kcal/mol
ATGTCCACGTGAGGGT | 0.15 kcal/mol
ATAGACACGTGGTGCG | -0.15 kcal/mol
AGATACACGTGGTATT | -0.02 kcal/mol
TAGGTCACGTGGTCAG | 0.05 kcal/mol
AATTGCACGTGAGTGT | 0.22 kcal/mol
TTCCTCACGTGTTTGT | 0.17 kcal/mol
GGGTGCACGTGCGGCT | -0.03 kcal/mol
AGATGCACGTGACGTT | 0.11 kcal/mol
ATTACCACGTGATGGT | 0.18 kcal/mol
GTTCTCACGTGGTCGG | 0.23 kcal/mol

Sequence | relative binding free energy
TGAGACACGTGTTGAG | 0 kcal/mol
TGATACACGTGTTGTT | 0.06 kcal/mol
AGTTGCACGTGCGCGC | -0.06 kcal/mol
GAGGTCACGTGCTGGT | 0.19 kcal/mol
GGTATCACGTGAAGTA | 0.46 kcal/mol
AGGAACACGTGAGGTT | 0.42 kcal/mol
AGGATCACGTGCTTTG | 0.13 kcal/mol
TCGGTCACGTGGAAGT | 0.33 kcal/mol
GTGTTCACGTGTTCGC | 0.3 kcal/mol
TACTTCACGTGGCATG | 0.36 kcal/mol
TGAAGCACGTGAGTGC | 0.17 kcal/mol
TGTGGCACGTGGTGAG | -0.08 kcal/mol
TACGGCACGTGTTGAT | 0.06 kcal/mol
TAAATCACGTGTGATA | 0.29 kcal/mol
GATGACACGTGGGGGC | -0.12 kcal/mol
CTGCGCACGTGTTGGA | -0.13 kcal/mol
CGGGGCACGTGAAGTA | 0.19 kcal/mol
TACGACACGTGGTGTT | -0.07 kcal/mol
GTCTGCACGTGAGGGT | 0.28 kcal/mol
TTACTCACGTGTGTAT | 0.12 kcal/mol
ATGATCACGTGTGTGG | 0.04 kcal/mol
AGGTTCACGTGGGAGC | 0.21 kcal/mol
GGTGGCACGTGTGATT | 0.06 kcal/mol

Sequence | relative binding free energy
AGAGACACGTGGGTGG | -0.09 kcal/mol
AAAATCACGTGGTAGT | 0.05 kcal/mol
GTTATCACGTGAGGGC | 0.22 kcal/mol
TTTTGCACGTGAAATT | 0.3 kcal/mol
GGAGACACGTGCGGGG | -0.04 kcal/mol
GTTGTCACGTGGCGGA | 0.15 kcal/mol
ACGGGCACGTGGTCGG | -0.14 kcal/mol
GGAGGCACGTGATGTG | -0.04 kcal/mol
TGGCGCACGTGTTGGT | 0.03 kcal/mol
GTGAGCACGTGGTAAG | -0.09 kcal/mol
GGTTACACGTGCGGAT | 0.22 kcal/mol
GGGTTCACGTGTATAG | 0.27 kcal/mol
ATTATCACGTGCTTTA | 0.07 kcal/mol
AGACGCACGTGTCGGT | 0.11 kcal/mol
GAGGCCACGTGTTGTG | -0.16 kcal/mol
AGTAGCACGTGTGAGT | -0.11 kcal/mol
TCGGGCACGTGTTTCG | 0.08 kcal/mol
TAATTCACGTGGTTAT | 0.2 kcal/mol
ATGTACACGTGCTAGG | 0.02 kcal/mol
GTGTGCACGTGATGAT | 0.15 kcal/mol
TTTACCACGTGTATGT | 0.05 kcal/mol
AAAGTCACGTGGGCTT | 0.02 kcal/mol
AGGGCCACGTGTTATT | 0.02 kcal/mol
